Laboratory results taken from PubChem BioAssay AID588342 (National Center for Advancing Translational Sciences (NCATS), 2011).
Out of some 360,000 compounds screened, about 25,000 (6.9%) were called active. Inconclusive means that the source gave no clear call. Such entries were picked first, then a sample of the others. Calls come from the whole dose curve; as a rule, active = well fitted inhibition curve with a large enough effect; inconclusive = small, poorly fitted or top-dose-only effect; inactive = flat fitted curve, though single readings scatter. A potency beside an inconclusive call is a rough fit, not a confirmed value.
Note: nearly all actives have a fitted effect of over 55% in size.
Potency is the fitted concentration of half-maximal effect; tags give direction and shape of the fitted curve.
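Throughout, for activity change, negative = inhibition: plate controls were vehicle for no effect and reference inhibitor for full effect.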

The molecules below were run against Luciferin 4-monooxygenase (Photinus pyralis) (UniProt P08659) (assay: qHTS profiling assay for firefly luciferase inhibitor/activator using purifed enzyme and Km concentrations of substrates (counterscreen for miR-21 project)). Details: purified FLuc, luminescence inhibition; activity change, negative = inhibition: at 57.5 µM (top of the series).
UniProt P08659, sequence (P08659 whole entry, looked up): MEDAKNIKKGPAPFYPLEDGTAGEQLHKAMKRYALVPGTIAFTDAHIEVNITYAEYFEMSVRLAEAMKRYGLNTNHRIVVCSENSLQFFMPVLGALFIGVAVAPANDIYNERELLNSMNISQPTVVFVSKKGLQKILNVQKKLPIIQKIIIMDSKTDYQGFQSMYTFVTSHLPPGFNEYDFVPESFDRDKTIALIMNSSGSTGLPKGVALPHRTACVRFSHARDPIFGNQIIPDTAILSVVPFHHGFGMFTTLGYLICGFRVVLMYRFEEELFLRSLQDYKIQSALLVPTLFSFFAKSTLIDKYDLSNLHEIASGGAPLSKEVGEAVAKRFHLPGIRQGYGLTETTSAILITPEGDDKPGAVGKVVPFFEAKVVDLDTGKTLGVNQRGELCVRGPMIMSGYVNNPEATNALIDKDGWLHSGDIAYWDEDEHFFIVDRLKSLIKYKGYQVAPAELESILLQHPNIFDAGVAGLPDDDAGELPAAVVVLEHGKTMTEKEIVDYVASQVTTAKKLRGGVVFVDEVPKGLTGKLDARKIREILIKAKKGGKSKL
Method in brief: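 Purified P. pyralis luciferase (10nM final) with 10uM D-luciferin and 10uM ATP (Km levels) in 50mM Tris acetate pH 7.5, 10mM Mg acetate, 0.01% Tween-20, 0.05% BSA; qHTS 6-point titration, ~60 µM downward; luminescence read.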
With `COC(=O)c1cc(-c2ccccc2)sc1N` the Potency was active: 21.3 µM.
For `CC(C)(C)C(=O)Nc1ccc2c(c1)OCCOCCOc1cc(NC(=O)C(C)(C)C)ccc1OCCOCCO2`, the “activity change, negative = inhibition” value was inactive: 4.26%.
`COC(=O)c1[nH]c(C)c(/C(O)=C2\C(=O)C(=O)N(CCN(C)C)C2c2ccco2)c1C` (stereo not given) was tested, and the Potency was inconclusive: 8.49 µM [inhibitor, partial curve, poor fit].
`COc1ccc(N/N=C(/N=Nc2nc(C)cc(=O)[nH]2)c2ccccc2)cc1` was tested, and the Potency was active: 4.26 µM.
`Cc1cc2n(n1)CCCN2C(=O)Nc1ccccc1C(F)(F)F` was tested, and the “activity change, negative = inhibition” value was inactive: -0.375%.
In the case of `O=C(NCCCn1ccnc1)c1cc2c(s1)CCCC2`, the “activity change, negative = inhibition” value was inactive: -19.1%.
In the case of `COc1cccc(C(=O)N2CCn3c2nc2ccccc23)c1`, the Potency was inconclusive: 21.3 µM [inhibitor, partial curve, poor fit].
With `CC(C)(C)NC(=O)CCC1COc2ccccc2O1` (stereo not given) the Potency was inconclusive: 23.9 µM [inhibitor, single point].
With `COc1ccc(/C(C)=N/NC(=O)c2ccccc2N)cc1` the Potency was inconclusive: 23.9 µM [inhibitor, partial curve].
`CCC(Nc1ccc(-c2nc(-c3ccccn3)no2)cc1[N+](=O)[O-])c1ccccc1` (stereo not given) was tested, and the Potency was inconclusive: 13.5 µM [inhibitor, partial curve].
In the case of `O=C(COc1ccccc1Cl)c1ccc[nH]1`, the Potency was inconclusive: 26.9 µM [inhibitor, single point].
In the case of `CC(C)(C)OC(=O)N1CCC(Cc2cc(-c3ccc(Cl)cc3)no2)(C(=O)O)CC1`, the Potency was inconclusive: 9.53 µM [inhibitor, partial curve, poor fit].
`Cc1cccc(N2CCn3c2nc2c3c(=O)n(CCCc3ccccc3)c(=O)n2C)c1` was tested, and the Potency was inconclusive: 15.1 µM [inhibitor, partial curve].
For `Cc1oc(-c2cccc(Cl)c2)nc1Cn1c(SCc2ccc(F)cc2)nc2cccnc21`, the Potency was inconclusive: 10.7 µM [inhibitor, partial curve].
In the case of `COCCn1c(SCc2nc3scc(-c4ccc(Cl)cc4)c3c(=O)[nH]2)nnc1-c1cccc(C)c1`, the “activity change, negative = inhibition” value was inactive: 2.86%.
In the case of `CCc1nnc(SCC(=O)N2CCCC(N3CCN(c4ccccc4C)CC3)C2)o1` (stereo not given), the “activity change, negative = inhibition” value was inactive: -1.17%.
For `COc1ccc(CCC(C)Nc2ccc(F)cc2)cc1` (stereo not given), the Potency was inconclusive: 23.9 µM [inhibitor, single point].
`Cc1ccc(C(c2sc3nc(-c4ccco4)nn3c2O)N2CCN(c3ccc(F)cc3)CC2)cc1` (stereo not given) was tested, and the Potency was inconclusive: 21.3 µM [inhibitor, partial curve, poor fit].
In the case of `Cc1ccc(NC(=O)c2cccs2)cc1NC(=O)c1cccc(F)c1`, the Potency was inconclusive: 21.3 µM [inhibitor, single point].
`c1ccc(-n2nnc3ccccc32)nc1` was tested, and the Potency was inconclusive: 37.9 µM [inhibitor, partial curve, poor fit].
`COc1ccc(-c2cn3nc(SCC(=O)Nc4cccc(C)c4C)ccc3n2)cc1` was tested, and the Potency was active: 2.13 µM.
`Cc1ccc(NS(=O)(=O)c2ccc(-n3cccn3)cc2)c(Br)c1` was tested, and the Potency was inconclusive: 30.1 µM [inhibitor, single point].
With `Cc1cc(NC(=O)c2ccc(C#N)cc2)on1` the Potency was inconclusive: 37.9 µM [inhibitor, single point].
For `Cc1cccc2cc3c(N)c(C#N)sc3nc12`, the Potency was inconclusive: 16.9 µM [inhibitor, partial curve].
`O=C(Nc1ccc(F)cc1)c1cccnc1` was tested, and the “activity change, negative = inhibition” value was inactive: 1.05%.
For `C=CCn1c(=NC(=O)c2cccs2)sc2cc(NC(C)=O)ccc21`, the Potency was inconclusive: 6.75 µM [inhibitor, partial curve].
With `Cc1cc(C)c2nc(N3CCCN(C(=O)c4ccco4)CC3)c(C#N)cc2c1` the Potency was inconclusive: 23.9 µM [inhibitor, single point].
For `CCN(CC(=O)NC(C)(C)C)C(=O)C(c1ccccc1)c1ccccc1`, the “activity change, negative = inhibition” value was inactive: -1.52%.
In the case of `ClC(=C\c1ccccc1)/C=N/N1CCN(c2ccccn2)CC1`, the Potency was inconclusive: 3.01 µM [inhibitor, full curve].
With `Clc1cccc(Nc2ncnc3c2nc2n3CCCCC2)c1` the Potency was active: 6.75 µM.
In the case of `O=C(Nc1cccn(Cc2c(Cl)cccc2Cl)c1=O)c1ccc(Cl)cc1`, the Potency was inconclusive: 10.7 µM [inhibitor, partial curve].
In the case of `O=c1c2oc3ccccc3c2n(Cc2ccccc2Cl)c(=O)n1Cc1ccc2c(c1)OCO2`, the “activity change, negative = inhibition” value was inactive: -6.88%.
`O=C(Nc1ccncc1)c1ccc([N+](=O)[O-])cc1Cl` was tested, and the “activity change, negative = inhibition” value was inactive: -8.87%.
In the case of `O=C(Nc1ccc(Br)c(C(F)(F)F)c1)c1ccc(C(F)(F)F)cc1`, the Potency was inconclusive: 26.9 µM [inhibitor, partial curve].
For `Cc1ccc(N=C2C(=O)Nc3ccccc32)cc1`, the Potency was inconclusive: 19 µM [inhibitor, single point].
For `CCOc1ccc(-c2nc(C#N)c(NCC(C)C)o2)cc1`, the Potency was inconclusive: 23.9 µM [inhibitor, partial curve, poor fit].
With `Cc1cc(C)nc(Nc2n[nH]c(-c3cccc4ccccc34)n2)n1` the Potency was active: 12 µM.
In the case of `COc1cccc(NC(=O)/C=C/c2ccc([N+](=O)[O-])cc2)c1`, the Potency was active: 6.01 µM.
For `COc1cc(CN2CCC(C(=O)NCCC(C)C)CC2)ccc1OCc1ccccc1`, the Potency was inconclusive: 30.1 µM [inhibitor, single point].
With `CCCc1cc(C(=O)Nc2ccc(C(=O)c3ccc(C)cc3)cc2)n(C)n1` the Potency was inconclusive: 30.1 µM [inhibitor, single point].
With `CCCNc1c(NS(=O)(=O)c2ccc(Cl)s2)c(=O)oc2ccccc12` the “activity change, negative = inhibition” value was inactive: 0.965%.
In the case of `O=S(=O)(NCCc1csc2nc(-c3ccc(Cl)cc3)nn12)c1cccs1`, the “activity change, negative = inhibition” value was inactive: -14.8%.
With `Cc1ccc2c(c1)N(C(=O)N1CCC(C(=O)Nc3cccc(F)c3)CC1)CCO2` the “activity change, negative = inhibition” value was inactive: -2.72%.
With `Cc1ccc(C(=O)OCC(=O)NCc2cccs2)s1` the Potency was inconclusive: 23.9 µM [inhibitor, partial curve, poor fit].
For `O=c1c2cc(-c3ccccc3)sc2nc2n1N=C(c1ccccc1)CS2`, the Potency was active: 1.9 µM.
`CCOc1ccc2nc(NC(=O)C3=NNC(=O)CC3)sc2c1` was tested, and the Potency was inconclusive: 2.69 µM [inhibitor, full curve].
In the case of `Cc1ccccc1NC(=O)Cc1nc(CSc2nnc(-c3ccc4c(c3)OCO4)o2)cs1`, the Potency was inconclusive: 21.3 µM [inhibitor, single point].
In the case of `CCOC(=O)N1CCN(S(=O)(=O)CCNC(=O)c2ccc(F)cc2)CC1`, the “activity change, negative = inhibition” value was inactive: 3.87%.
`Fc1cccc(/C=N/N=C/c2cccc(F)c2)c1` was tested, and the Potency was active: 2.69 µM.
For `CC(=O)c1sc(NC(=O)c2ccc(C(C)(C)C)cc2)nc1C`, the Potency was active: 1.35 µM.
With `O=C(Nc1ccc2oc(-c3ccccc3Cl)nc2c1)c1ncn[nH]1` the Potency was active: 3.01 µM.
With `CC1CCc2sc(C(=O)NCC(C)(C)N3CCOCC3)cc2C1` (stereo not given) the “activity change, negative = inhibition” value was inactive: -7.92%.
For `O=C(CCn1c(=S)oc2ccccc21)NC1CCCCC1`, the “activity change, negative = inhibition” value was inactive: -2.22%.
`COc1ccc(CNC(=O)Cn2cccc2C(=O)c2ccccc2)cc1` was tested, and the Potency was inconclusive: 21.3 µM [inhibitor, partial curve].
`Cn1c(C(=O)N2CCN(c3ncccn3)CC2)cc2c(=O)n(C)c3ccccc3c21` was tested, and the “activity change, negative = inhibition” value was inactive: -2.81%.
For `Cc1ccc(-c2cc(C(=O)OCn3nnc4ccccc4c3=O)c3ccccc3n2)cc1`, the Potency was inconclusive: 5.36 µM [inhibitor, partial curve].
`CCCn1c(=O)cc(N)n(-c2ccc(OC(F)(F)F)cc2)c1=O` was tested, and the “activity change, negative = inhibition” value was inactive: -1.62%.
`N/C(=N\NC(=O)c1ccc(Cl)cc1)c1cnccn1` was tested, and the Potency was inconclusive: 23.9 µM [inhibitor, partial curve].
With `Cc1cc(/C=N/NC(=O)c2cccc([N+](=O)[O-])c2)c(C)n1-c1ccc(Cl)cc1Cl` the Potency was inconclusive: 5.36 µM [inhibitor, full curve].
In the case of `CCOC(=O)C1=C(N)Oc2cc(O)ccc2C1c1cccc([N+](=O)[O-])c1` (stereo not given), the Potency was inconclusive: 19 µM [inhibitor, partial curve, poor fit].
For `CCCCN(CCCC)C(=O)c1c[nH]c2ccc(S(=O)(=O)Nc3cccc(Cl)c3C)cc2c1=O`, the Potency was inconclusive: 8.49 µM [inhibitor, partial curve].
In the case of `CCOC(=O)Cn1nnc(-c2ccc(S(C)(=O)=O)cc2)n1`, the “activity change, negative = inhibition” value was inactive: -0.294%.
`O=C(c1ccc(Cl)cc1)c1nnc(-c2ccncc2)o1` was tested, and the Potency was inconclusive: 6.75 µM [inhibitor, full curve].
`CN1CCS/C1=C/C=C1/SC(=S)N(Cc2ccccc2)C1=O` was tested, and the Potency was inconclusive: 23.9 µM [inhibitor, single point].
`CCCN1C(C(=O)c2ccccc2)=C(OC(=O)COc2ccc(C)cc2)c2ccccc2S1(=O)=O` was tested, and the “activity change, negative = inhibition” value was inactive: -14.1%.
In the case of `Cc1ccc(OCCNC(=O)c2cccc(C)c2)cc1`, the “activity change, negative = inhibition” value was inactive: 0.717%.
For `Cc1nc2ccc(NC(=O)COc3ccccc3F)cc2s1`, the Potency was inconclusive: 19 µM [inhibitor, partial curve].
For `CCOC(=O)c1c(C)[nH]c(-c2csc(C)n2)c1C`, the Potency was inconclusive: 23.9 µM [inhibitor, single point].
For `Cc1ccc(NC(=O)C2CCCN(S(=O)(=O)c3cccs3)C2)c(C)c1` (stereo not given), the “activity change, negative = inhibition” value was inactive: -16.2%.
In the case of `C[N+]1(CC(O)COCC2COc3ccccc3O2)CCOCC1` (stereo not given), the “activity change, negative = inhibition” value was inactive: -1.64%.
In the case of `CCN(CC)CCN(C(=O)CCOc1ccccc1)c1nc2ccc(F)cc2s1`, the “activity change, negative = inhibition” value was inactive: 2.67%.
With `CN(N=Nc1cccc([N+](=O)[O-])c1)c1ccccc1` the Potency was active: 9.53 µM.
In the case of `CNC(=O)c1ccc(Nc2nc(-c3ccccc3)nc3ccccc23)cc1`, the Potency was inconclusive: 23.9 µM [inhibitor, partial curve].
For `CCCC1Oc2ccccc2C(=O)N(CC(=O)c2ccc3c(c2)OCCO3)C1=O` (stereo not given), the Potency was active: 6.01 µM.
In the case of `O=C(c1ccc2ccccc2c1)N1CCN(Cc2ccccc2)CC1`, the Potency was active: 21.3 µM.
